Holding throughout (assay): cell count relative to DMSO control; melanoma cells; higher = more viable cells
Holding throughout (conditions): library dose: low library concentration; 72 h

The test system of experiment [1] is MZ2-MEL.
For experiment [2], the system named is MeWo.
Experiment [3] deals with RPMI7951.
Experiment [4] deals with RVH-421.
Experiment [5] deals with SkMel28.
Experiment [6] relates to SkMel2.
For experiment [7], the system named is SkMel30.
For experiment [8], the system named is SkMel5.
In experiment [9] the test system is UACC257.
Experiment [10] concerns UACC62.

The list shows a part of the results. Most values come without repeats; read them as rough.
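Also: cell number obtained by counting DAPI-stained nuclei in high-throughput microscope images with image analysis software, screen run in 1,536-well plates.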

Take `CC[C@]1(O)C[C@H]2CN(CCc3c([nH]c4ccccc34)[C@@](C(=O)OC)(c3cc4c(cc3OC)N(C=O)[C@H]3[C@@](O)(C(=O)OC)[C@H](OC(C)=O)[C@]5(CC)C=CCN6CC[C@]43[C@@H]65)C2)C1` [vincristine] + C[C@@H]1CCN(C(=O)CC#N)C[C@@H]1N(C)c1ncnc2[nH]ccc12 [CP690550] (first compound 0.0001 µM, partner dose 1 µM): the cell count was found to be 100% in [1]; 93.4% in experiment [2]; 96.1% in experiment [3]; 92% in [4]; 69.6% in [5]; 110% in [6]. In addition, the cell count was determined as 63% in experiment [7], 102% in experiment [8], 56% in experiment [9] and 61.5% in [10].
As for `Cc1cc(Nc2cc(N3CCN(C)CC3)nc(Sc3ccc(NC(=O)C4CC4)cc3)n2)n[nH]1` [Tozasertib] + Nc1ncn([C@H]2C[C@H](O)[C@@H](CO)O2)c(=O)n1 [decitabine] (first compound 0.006 µM, partner dose 0.1 µM), the cell count in [1] was 81.8%; in experiment [2], 72.6%; in [3] it was 71.9%; in experiment [4], 79.1%; in experiment [5], 87.4%; in experiment [6], 103%. Further, the cell count in experiment [7] stood at 89.7%; in experiment [10], 67%.
For `N#CC[C@H](C1CCCC1)n1cc(-c2ncnc3[nH]ccc23)cn1` [ruxolitinib] + CCCCCCCCCCCC1=C(O)C(=O)C=C(O)C1=O [Embelin] (first compound 1 µM, partner dose 1.2 µM), the cell count in experiment [1] is 101%; in experiment [2], 90.4%; in experiment [3] it was 123%; in [4], 95.9%; in experiment [5], 97.1%; in experiment [6] it was 117%. The cell count in experiment [7] came out at 109%; in [8], 101%; in [9], 75.2%; in experiment [10], 96.2%.
With `N#CC[C@H](C1CCCC1)n1cc(-c2ncnc3[nH]ccc23)cn1` [ruxolitinib] + O=C(Nc1ccccc1)c1cc([N+](=O)[O-])ccc1Cl [GW9662] (first compound 1 µM, partner dose 2 µM), the cell count in experiment [1] amounted to 95.7%; in experiment [2], 95.3%; in experiment [3], 113%; in experiment [4], 86.2%; in experiment [5], 106%; in experiment [6] it was 98.5%. Also, the cell count in experiment [7] turned out to be 87%; in experiment [8], 88.2%; in [9], 92.2%; in experiment [10], 94.3%.
With `CC[C@]1(O)C[C@H]2CN(CCc3c([nH]c4ccccc34)[C@@](C(=O)OC)(c3cc4c(cc3OC)N(C=O)[C@H]3[C@@](O)(C(=O)OC)[C@H](OC(C)=O)[C@]5(CC)C=CCN6CC[C@]43[C@@H]65)C2)C1` [vincristine] + Nc1ncn([C@H]2C[C@H](O)[C@@H](CO)O2)c(=O)n1 [decitabine] (first compound 0.0001 µM, partner dose 0.1 µM), the cell count in experiment [1] was 83.9%; in experiment [2] it was 84.8%; in experiment [3], 61%; in experiment [4], 70.3%; in experiment [5], 74.8%; in experiment [6], 103%. The cell count amounted to 74.9% in experiment [7] and 52.1% in [10].
For the molecule `N#CC[C@H](C1CCCC1)n1cc(-c2ncnc3[nH]ccc23)cn1` [ruxolitinib] + C=CCNC1=C2C[C@@H](C)C[C@H](OC)[C@H](O)[C@@H](C)/C=C(\C)[C@H](OC(N)=O)[C@@H](OC)/C=C\C=C(/C)C(=O)NC(=CC1=O)C2=O [Tanespimycin] (first compound 1 µM, partner dose 0.002 µM), the cell count in experiment [1] came out at 105%; in experiment [2] it was 95.3%; in experiment [3], 86.9%; in [4], 91.3%; in [5], 117%; in [6], 88.3%. Besides, the cell count in experiment [7] came out at 91%; in experiment [10] it was 88.9%.
On to `Cc1cc(Nc2cc(N3CCN(C)CC3)nc(Sc3ccc(NC(=O)C4CC4)cc3)n2)n[nH]1` [Tozasertib] + CC(C)C[C@H](NC(=O)[C@H](Cc1ccccc1)NC(=O)c1cnccn1)B(O)O [Bortezomib] (first compound 0.006 µM, partner dose 0.001 µM), for which the cell count in experiment [1] was determined as 87%; in experiment [2], 81%; in experiment [3], 99.2%; in experiment [4], 79.5%; in [5] it was 103%; in [6], 93%. For the same molecule, the cell count in [7] is 90.4%; in [10], 84.9%.
In the case of `N#CC[C@H](C1CCCC1)n1cc(-c2ncnc3[nH]ccc23)cn1` [ruxolitinib] + Nc1cccc2c1CN(C1CCC(=O)NC1=O)C2=O [lenalidomide] (first compound 1 µM, partner dose 1 µM), the cell count in [1] turned out to be 98.2%; in experiment [2] it was 105%; in experiment [3] it was 109%; in experiment [4] it was 99.9%; in experiment [5], 123%; in [6], 99.5%. Also, the cell count came out at 113% in experiment [7] and 108% in [10].
For the molecule `Cc1cc(Nc2cc(N3CCN(C)CC3)nc(Sc3ccc(NC(=O)C4CC4)cc3)n2)n[nH]1` [Tozasertib] + CCCCCCCCCCCCCCCCCCOP(=O)([O-])OC1CC[N+](C)(C)CC1 [Perifosine] (first compound 0.006 µM, partner dose 0.4 µM), the cell count in [1] amounted to 103%; in experiment [2] it was 93.1%; in experiment [3], 106%; in experiment [4] it was 91.6%; in experiment [5], 95.4%; in [6] it was 89.4%. The cell count in experiment [7] stood at 111%; in experiment [10], 85.1%.
As to `Cc1cc(Nc2cc(N3CCN(C)CC3)nc(Sc3ccc(NC(=O)C4CC4)cc3)n2)n[nH]1` [Tozasertib] + CS(=O)(=O)CCNCc1ccc(-c2ccc3ncnc(Nc4ccc(OCc5cccc(F)c5)c(Cl)c4)c3c2)o1 [lapatinib] (first compound 0.006 µM, partner dose 0.8 µM), the cell count turned out to be 98.8% in experiment [1]; 90.1% in experiment [2]; 100% in experiment [3]; 89.3% in experiment [4]; 72.6% in experiment [5]; 90.8% in experiment [6]. Further, the values for the cell count in experiment [7] and in experiment [10] were 119% and 94.8%, respectively.
As to `CC[C@]1(O)C[C@H]2CN(CCc3c([nH]c4ccccc34)[C@@](C(=O)OC)(c3cc4c(cc3OC)N(C=O)[C@H]3[C@@](O)(C(=O)OC)[C@H](OC(C)=O)[C@]5(CC)C=CCN6CC[C@]43[C@@H]65)C2)C1` [vincristine] + NC1(c2ccc(-c3nc4ccn5c(=O)[nH]nc5c4cc3-c3ccccc3)cc2)CCC1 [MK2206] (first compound 0.0001 µM, partner dose 0.4 µM), the cell count in experiment [1] came out at 102%; in [2], 50.3%; in [3], 53.9%; in [4], 92.9%; in experiment [5], 48.4%; in experiment [6], 94.3%. In addition, the cell count in experiment [7] came out at 52.4%; in experiment [10], 29.2%.

(Values after the supplement of paper PMC4604168 (melanoma cell lines).)
